# The list shows a part of the results.
# B1: Epa1 (Candida glabrata) (protein)
# chain: MGSSHHHHHHSSGLVPRGSHMTSSNDISLASKDPTTFPLGCSPDITTPKKGLSMELYSYDFRKKGSYPCWDAAYLDPNYPRTGYKSHRLLAKVDGVTGNINFYYHATKGCTPQLGHLPASYNYPKPLTMTNFTMLLYGYFRPKVTGFHTFTISADDLLFVNFGAGNAFDCCRRDSSADHFGNYQAYAIWGSKTAKDELTVHLDAGVYYPIRLFYNNREYDGALSFTFKTESNENTVSDFSEYFFSLDDTEEGCPGLISYD
# Key:
# Assay in all cases: glycan array binding signal (z-score within array); higher = stronger binding
# Conditions in all cases: glycan notation: IUPAC condensed, linker removed
# [1] = target: GlcNAc(b1-4)GlcNAc(b1-4)GlcNAc(b1-4)GlcNAc(b1-4)GlcNAc
# Method in brief: (§1)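 Glycan array binding is given as a within-array Z-score, which can be read as non-binding when negative. The arrays, 3228 of them, came from the Consortium for Functional Glycomics database and were retained only where the protein sequence was available. Z-scores were averaged across arrays of the same protein sequence at different concentrations or buffers and across linkers.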
# [2] = target: GlcNAc(b1-4)GlcNAc(b1-4)GlcNAc(b1-4)GlcNAc(b1-4)GlcNAc(b1-4)GlcNAc
# Method in brief: as §1
# [3] = target: GlcNAc(b1-4)[GlcNAc(b1-6)]GalNAc
# Method in brief: as §1
# [4] = target: GlcNAc(b1-6)Gal(b1-4)GlcNAc
# Method in brief: as §1
# GlcNAc(b1-6)GalNAc = target: GlcNAc(b1-6)GalNAc
# Method in brief: as §1
# [5] = target: GlcNAc6S(b1-3)Gal(b1-4)GlcNAc
# Method in brief: as §1
# Kdn(a2-3)Gal(b1-3)GalNAc = target: Kdn(a2-3)Gal(b1-3)GalNAc
# Method in brief: as §1
# Kdn(a2-3)Gal(b1-3)GlcNAc = target: Kdn(a2-3)Gal(b1-3)GlcNAc
# Method in brief: as §1
# Kdn(a2-3)Gal(b1-4)Glc = target: Kdn(a2-3)Gal(b1-4)Glc
# Method in brief: as §1
# Kdn(a2-3)Gal(b1-4)GlcNAc = target: Kdn(a2-3)Gal(b1-4)GlcNAc
# Method in brief: as §1
# [6] = target: Kdn(a2-3)Gal(b1-4)[Fuc(a1-3)]GlcNAc
# Method in brief: as §1
# Kdn(a2-6)Gal(b1-4)GlcNAc = target: Kdn(a2-6)Gal(b1-4)GlcNAc
# Method in brief: as §1
# [7] = target: Man(a1-2)Man(a1-2)Man(a1-3)Man
# Method in brief: as §1
# [8] = target: Man(a1-2)Man(a1-2)Man(a1-6)[Man(a1-3)]Man
# Method in brief: as §1
# Man(a1-2)Man(a1-3)Man = target: Man(a1-2)Man(a1-3)Man
# Method in brief: as §1
# [9] = target: Man(a1-2)Man(a1-3)[Man(a1-2)Man(a1-6)]Man
# Method in brief: as §1
# [10] = target: Man(a1-2)Man(a1-3)[Man(a1-2)Man(a1-6)]Man(a1-6)[Man(a1-2)Man(a1-2)Man(a1-3)]Man
# Method in brief: as §1
# [11] = target: Man(a1-2)Man(a1-3)[Man(a1-2)Man(a1-6)]Man(a1-6)[Man(a1-2)Man(a1-2)Man(a1-3)]Man(b1-4)GlcNAc(b1-4)GlcNAc
# Method in brief: as §1
# [12] = target: Man(a1-2)Man(a1-3)[Man(a1-6)]Man(a1-6)[Man(a1-2)Man(a1-3)]Man(b1-4)GlcNAc(b1-4)GlcNAc
# Method in brief: as §1
# [13] = target: Man(a1-2)Man(a1-6)[Man(a1-3)]Man(a1-6)[Man(a1-2)Man(a1-2)Man(a1-3)]Man
# Method in brief: as §1
# [14] = target: Man(a1-2)Man(a1-6)[Man(a1-3)]Man(a1-6)[Man(a1-2)Man(a1-2)Man(a1-3)]Man(b1-4)GlcNAc(b1-4)GlcNAc
# Method in brief: as §1
# Man(a1-3)[Man(a1-6)]Man = target: Man(a1-3)[Man(a1-6)]Man
# Method in brief: as §1
# [15] = target: Man(a1-3)[Man(a1-6)]Man(a1-6)[Man(a1-2)Man(a1-3)]Man(b1-4)GlcNAc(b1-4)GlcNAc
# Method in brief: as §1
# [16] = target: Man(a1-3)[Man(a1-6)]Man(a1-6)[Man(a1-3)]Man
# Method in brief: as §1
# [17] = target: Man(a1-3)[Man(a1-6)]Man(a1-6)[Man(a1-3)]Man(b1-4)GlcNAc(b1-4)GlcNAc
# Method in brief: as §1
# [18] = target: Man(a1-3)[Man(a1-6)]Man(b1-4)GlcNAc(b1-4)GlcNAc
# Method in brief: as §1
# [19] = target: Man(a1-3)[Man(a1-6)]Man(b1-4)GlcNAc(b1-4)[Fuc(a1-6)]GlcNAc
# Method in brief: as §1
# Man(a1-6)Man = target: Man(a1-6)Man
# Method in brief: as §1
# Man(b1-4)GlcNAc = target: Man(b1-4)GlcNAc
# Method in brief: as §1
# MurNAc(b1-4)GlcNAc = target: MurNAc(b1-4)GlcNAc
# Method in brief: as §1
# Neu5Ac(a2-3)Gal = target: Neu5Ac(a2-3)Gal
# Method in brief: as §1
# [20] = target: Neu5Ac(a2-3)Gal(b1-3)GalNAc
# Method in brief: as §1
# [21] = target: Neu5Ac(a2-3)Gal(b1-3)GalNAc(b1-3)Gal(a1-4)Gal(b1-4)Glc
# Method in brief: as §1
# [22] = target: Neu5Ac(a2-3)Gal(b1-3)GalNAc(b1-4)[Neu5Ac(a2-3)]Gal(b1-4)Glc
# Method in brief: as §1
# [23] = target: Neu5Ac(a2-3)Gal(b1-3)GalNAc(b1-4)[Neu5Ac(a2-8)Neu5Ac(a2-3)]Gal(b1-4)Glc
# Method in brief: as §1
# [24] = target: Neu5Ac(a2-3)Gal(b1-3)GalNAc6S
# Method in brief: as §1
# [25] = target: Neu5Ac(a2-3)Gal(b1-3)GlcNAc
# Method in brief: as §1
binder,measurement,setting,value
B1,glycan array binding signal (z-score),[1],-0.305
same,glycan array binding signal (z-score),[2],-0.339
same,glycan array binding signal (z-score),[3],-0.302
same,glycan array binding signal (z-score),[4],1.23
same,glycan array binding signal (z-score),GlcNAc(b1-6)GalNAc,-0.326
same,glycan array binding signal (z-score),[5],1.46
same,glycan array binding signal (z-score),Kdn(a2-3)Gal(b1-3)GalNAc,-0.296
same,glycan array binding signal (z-score),Kdn(a2-3)Gal(b1-3)GlcNAc,-0.225
same,glycan array binding signal (z-score),Kdn(a2-3)Gal(b1-4)Glc,-0.22
same,glycan array binding signal (z-score),Kdn(a2-3)Gal(b1-4)GlcNAc,-0.284
same,glycan array binding signal (z-score),[6],-0.196
same,glycan array binding signal (z-score),Kdn(a2-6)Gal(b1-4)GlcNAc,-0.227
same,glycan array binding signal (z-score),[7],-0.34
same,glycan array binding signal (z-score),[8],-0.25
same,glycan array binding signal (z-score),Man(a1-2)Man(a1-3)Man,-0.318
same,glycan array binding signal (z-score),[9],-0.366
same,glycan array binding signal (z-score),[10],-0.347
same,glycan array binding signal (z-score),[11],-0.32
same,glycan array binding signal (z-score),[12],-0.344
same,glycan array binding signal (z-score),[13],-0.399
same,glycan array binding signal (z-score),[14],-0.334
same,glycan array binding signal (z-score),Man(a1-3)[Man(a1-6)]Man,-0.212
same,glycan array binding signal (z-score),[15],-0.281
same,glycan array binding signal (z-score),[16],-0.324
same,glycan array binding signal (z-score),[17],-0.273
same,glycan array binding signal (z-score),[18],-0.318
same,glycan array binding signal (z-score),[19],-0.271
same,glycan array binding signal (z-score),Man(a1-6)Man,-0.267
same,glycan array binding signal (z-score),Man(b1-4)GlcNAc,-0.281
same,glycan array binding signal (z-score),MurNAc(b1-4)GlcNAc,-0.328
same,glycan array binding signal (z-score),Neu5Ac(a2-3)Gal,-0.294
same,glycan array binding signal (z-score),[20],-0.339
same,glycan array binding signal (z-score),[21],-0.301
same,glycan array binding signal (z-score),[22],-0.293
same,glycan array binding signal (z-score),[23],-0.29
same,glycan array binding signal (z-score),[24],-0.26
same,glycan array binding signal (z-score),[25],-0.295

# From the supplement of paper PMC8728848
